# PubChem BioAssay AID1468 (National Center for Advancing Translational Sciences (NCATS), 2008)
# Where “and” joins values, the source holds several entries; their conditions need not be identical. Equal entries are not always repeated. Screen size: about 280,000 compounds; about 1,100 (0.39%) were called active. Inconclusive means that the source gave no clear call. Such entries were picked first, then a sample of the others. Calls follow the shape of the dose curve; as a rule, active = well fitted inhibition curve with a large enough effect; inconclusive = small, poorly fitted or top-dose-only effect, or effect the other way; inactive = flat fitted curve, though single readings scatter. Potencies of inconclusive entries are doubtful fits and often do not repeat.
# Target: Microtubule-associated protein tau (Homo sapiens) (UniProt P10636)
# Assay: qHTS for Inhibitors of Tau Fibril Formation, Fluorescence Polarization; also: nearly all actives have a fitted effect of over 55% in size
# Conditions: K18 P301L tau heparin fibrillization, Alexa594 FP, 6 h; series mostly up to 57.7 µM
# How it was run: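 FP of Alexa 594-tau after heparin (20 uM) induction. Substrate: human K18 P301L, 15 uM unlabeled, 0.24 uM labeled. Buffer 100 mM sodium acetate pH 7. 6 hr, 37 C.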
# Potency is read from the fitted curve at half-maximal effect; tags tell the direction and shape of the fitted curve.
# UniProt P10636, sequence (P10636 whole entry, looked up): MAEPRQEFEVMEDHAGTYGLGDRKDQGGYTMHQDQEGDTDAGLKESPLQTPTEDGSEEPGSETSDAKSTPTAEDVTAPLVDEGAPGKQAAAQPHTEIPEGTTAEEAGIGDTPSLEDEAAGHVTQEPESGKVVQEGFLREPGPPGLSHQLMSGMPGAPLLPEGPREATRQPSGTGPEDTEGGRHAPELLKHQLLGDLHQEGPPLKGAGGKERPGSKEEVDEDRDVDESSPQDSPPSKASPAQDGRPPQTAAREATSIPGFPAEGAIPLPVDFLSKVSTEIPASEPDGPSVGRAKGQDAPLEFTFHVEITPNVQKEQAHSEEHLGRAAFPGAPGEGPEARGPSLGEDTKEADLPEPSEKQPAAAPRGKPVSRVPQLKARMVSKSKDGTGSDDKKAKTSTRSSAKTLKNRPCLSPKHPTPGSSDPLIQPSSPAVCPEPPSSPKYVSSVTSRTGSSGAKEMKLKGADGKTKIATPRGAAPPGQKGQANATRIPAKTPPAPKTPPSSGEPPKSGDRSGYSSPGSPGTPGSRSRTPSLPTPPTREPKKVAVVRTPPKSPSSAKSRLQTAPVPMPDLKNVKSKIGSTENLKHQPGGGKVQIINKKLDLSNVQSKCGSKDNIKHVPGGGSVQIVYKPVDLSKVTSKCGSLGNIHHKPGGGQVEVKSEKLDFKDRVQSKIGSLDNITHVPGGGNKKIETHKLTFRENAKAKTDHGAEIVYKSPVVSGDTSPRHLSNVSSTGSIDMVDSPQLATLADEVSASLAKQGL
row,Compound,Potency
1,CCOc1ccc(CC2NCCc3cc(OCC)c(OCC)cc32)cc1OCC (stereo not drawn),"inconclusive: 0.708 µM [inhibitor, full curve, poor fit]"
2,CCc1ccc(NS(=O)(=O)c2ccc3[nH]cc(C(=O)NCc4ccc(C)cc4)c(=O)c3c2)cc1,active: 3.55 µM
3,Cc1ccccc1CN(c1ccc(C(=O)Nc2ccccc2C(=O)NCc2ccco2)cc1)S(C)(=O)=O,"inconclusive: 0.199 µM [inhibitor, full curve, poor fit]"
4,Clc1ccc2nc(Nc3ccccc3Cl)nc(-c3ccccc3)c2c1,"inconclusive: 5.62 µM [inhibitor, partial curve]"
5,CC(=O)OCCNc1cc(SC(C)C)c2nonc2c1[N+](=O)[O-],inactive
6,CCN(CC)c1ccc(/C=N/Nc2nc3ccccc3[nH]2)cc1,"inconclusive: 10 µM [activator, partial curve, poor fit]"
7,COc1ccc(NC(=O)Cn2c(=O)n(CC(=O)NCCc3ccccc3)c(=O)c3ccccc32)cc1,"inconclusive: 20 µM [inhibitor, partial curve]"
8,Cc1ccc(NS(=O)(=O)c2cc(NC(=O)c3ccc4c(c3)NC(=O)CS4)ccc2C)c(C)c1,"inconclusive: 28.2 µM [inhibitor, single point]"
9,CC1CCCCN1S(=O)(=O)c1ccc(NC(=O)c2cccc(-n3cnnn3)c2)cc1 (stereo not drawn),"inconclusive: 31.6 µM [inhibitor, partial curve]"
10,Cc1ccc(NC(=O)c2cc3c(-c4ccccc4)nn(-c4ccccc4)c3s2)cc1,"inconclusive: 31.6 µM [inhibitor, partial curve]"
11,O=C(Nc1ccc(Br)cc1F)C(NS(=O)(=O)c1cccc2nsnc12)c1ccccc1 (stereo not drawn),"inconclusive: 25.1 µM [inhibitor, single point]"
12,Cc1cccc(OCCN2CSC(=S)N(C)C2)c1,inactive
13,Cc1c(/C=C/C(=O)c2ccc(Cl)s2)cnn1C,inactive
14,S=C(c1ccc2c(c1)OCO2)N1CCCCCC1,inactive
15,CC[C@H]1C(c2cccc(C)c2)=NN(c2ccccc2)[C@@H]1CO,"inconclusive: 6.31 µM [activator, full curve]"
16,COc1ccc(-c2cn3c(n2)sc2cc(C(=O)NCCCN4CCCCC4)ccc23)cc1,"inconclusive: 20 µM [activator, single point]"
17,Cc1nn(-c2ccccc2)c(Cl)c1C(=O)NC1CCCCC1,inactive
18,Cc1cccc(-n2cc(C(=O)O)c(=O)cc2C)c1,inactive
19,COc1ccc(N(C)C(=O)CCS(=O)(=O)c2cccc3nonc23)c(OC)c1,inactive
20,Cc1nn(CCCC(=O)Nc2cc(C(F)(F)F)ccc2Cl)c(=O)c2c1sc1ccccc12,"inconclusive: 31.6 µM [inhibitor, single point]"
21,CCOC(=O)C1CCCN(C(=O)C(C)Oc2ccc(Cl)cc2Cl)C1 (stereo not drawn),"inconclusive: 12.6 µM [activator, partial curve, poor fit]"
22,Cc1ccc(N2CCN(C(=O)c3ccccc3Br)CC2)c(C)c1,"inconclusive: 5.01 µM [inhibitor, partial curve, poor fit]"
23,Cc1cccc(C)c1NC(=S)N(CCN(C)C)C(C)c1cccnc1 (stereo not drawn),inactive

row,Compound,Potency
1,CCNC(=O)c1c(C)oc2ncn(C)c(=O)c12,"inconclusive: 35.5 µM [inhibitor, single point]"
2,CS(=O)(=O)N(CCc1ccccc1)CC(=O)Nc1ccc(OCc2ccccc2)cc1,"inconclusive: 28.2 µM [inhibitor, partial curve, poor fit]"
3,CCOCCc1nnc(NC(=O)C(=O)c2cc(C)n(-c3ccc(Cl)cc3)c2C)s1,"inconclusive: 31.6 µM [inhibitor, partial curve]"
4,O=C(CSc1ncc(-c2ccccc2)[nH]1)Nc1cccc(Br)c1,"inconclusive: 39.8 µM [inhibitor, single point]"
5,COCCNc1nc(-c2ccccc2CN(C)C)nc2ccccc12,inactive
6,Cc1ccc(S(=O)(=O)NNC(=O)c2snnc2C)cc1,"inconclusive: 28.2 µM [inhibitor, single point]"
7,COc1cc2nc(NC(=O)c3ccc(S(=O)(=O)N4CCc5ccccc54)cc3)sc2cc1OC,inactive
8,Cc1nn(Cc2ccccc2)c2c1C(c1cccc(Cl)c1)C(C#N)=C(N)O2 (stereo not drawn),"inconclusive: 35.5 µM [inhibitor, single point]"
9,CCOC(=O)CSc1nc2sc(C)c(C)c2c(=O)[nH]1,inactive
10,CCn1c(SCC(=O)Nc2ccc(C)cc2)nnc1-c1ccc(O)cc1,inactive
11,COc1ccc(-n2c(C)c3c(OC)cccc(=O)c3c2C)cc1,"inconclusive: 28.2 µM [inhibitor, single point]"
12,O=C(Nc1ccc(S(=O)(=O)N2CCCCCC2)cc1)c1ccc(Br)o1,"inconclusive: 39.8 µM [inhibitor, single point]"
13,Clc1ccc(Nc2c3c(nc4ncnn24)CCC3)cc1,inactive
14,COc1ccc2nc(NC(=O)C3CCCN(S(=O)(=O)c4cccc5nonc45)C3)sc2c1 (stereo not drawn),"inconclusive: 44.7 µM [inhibitor, single point]"
15,CC(=O)Nc1ccc(OC(=O)c2ccc(Cl)cc2)cc1,inactive
16,O=C1OCCN1C(=O)[C@H]1[C@H](c2ccc([N+](=O)[O-])cc2)C(c2ccccc2)=NN1c1ccccc1,"inconclusive: 5.01 µM [activator, full curve, poor fit]"
17,Cc1ccc2nc(-c3cccs3)c(Nc3ccc4c(c3)OCCO4)n2c1,inactive
18,CC(C)Cc1c(O)nc(SCCN2CCOCC2)[nH]c1=O,inactive
19,O=C(Nc1cccc(Cl)c1)Nc1cccc(Cl)c1,"inconclusive: 3.55 µM [inhibitor, full curve]"
20,C=C(C)COc1ccc(-c2[nH]ncc2Oc2ccccc2OCC)c(O)c1,"inconclusive: 15.8 µM [inhibitor, partial curve, poor fit]"
21,CCOC(=O)c1c(C)[nH]c(C(C)=O)c1C,inactive
22,C/C(=N\N=C1\NC(=O)C(CC(=O)Nc2ccc(C)c(Cl)c2)S1)C(C)(C)C (stereo not drawn),"inconclusive: 17.8 µM [inhibitor, single point]"
23,CC(C)(C)C1CCc2c(sc(NC(=O)c3noc4c3CCCC4)c2C#N)C1 (stereo not drawn),inactive

row,Compound,Potency
1,CC1CCc2nc(NC(=O)Cc3cccs3)sc2C1 (stereo not drawn),inactive
2,CCOc1ccc(NC(=O)c2ccc(F)c(S(=O)(=O)N(Cc3ccc(C(=O)OC)cc3)Cc3ccc(OC)c(OC)c3)c2)cc1,"inconclusive: 7.94 µM [inhibitor, partial curve]"
3,O=C(Cn1cc(C(=O)c2ccco2)c2ccccc21)Nc1ccccc1,"inconclusive: 35.5 µM [inhibitor, single point] and inconclusive: 20 µM [inhibitor, partial curve]"
4,CC1=CC2=C(OC1N(C)C)c1cccc3cccc(c13)C2=O (stereo not drawn),"inconclusive: 22.4 µM [inhibitor, partial curve]"
5,CC1CCCN(C(=S)SCC(=O)c2cc(Br)cc(Br)c2O)C1 (stereo not drawn),"inconclusive: 15.8 µM [inhibitor, partial curve]"
6,CCC(=O)N1CCc2cc(S(=O)(=O)NCc3ccc(C)cc3)ccc21,"inconclusive: 44.7 µM [inhibitor, single point]"
7,CCC(C)(C)n1nnnc1CN(Cc1cccs1)Cc1cc2cc(OC)ccc2[nH]c1=O,inactive
8,COc1ccc(C)cc1NC(=O)c1nnn(Cc2cccc(Br)c2)c1N,"inconclusive: 8.91 µM [inhibitor, full curve]"
9,CCSc1nnc(NC(=O)C(C(F)(F)F)C(F)(F)F)s1,"inconclusive: 17.8 µM [inhibitor, partial curve]"
10,Cc1ccc2oc(C(=O)Nc3ccc(S(=O)(=O)N4CCCCC4C)cc3)cc(=O)c2c1 (stereo not drawn),"inconclusive: 2 µM [inhibitor, partial curve]"
11,CCOc1ccc(CNC(=O)C2CCN(c3nc4ccccc4nc3C(F)(F)F)CC2)cc1OC,inactive
12,C=CCN(c1ccccc1)S(=O)(=O)c1cc(C(=O)NC2=NCCS2)ccc1Cl,"inconclusive: 28.2 µM [inhibitor, partial curve]"
13,COc1ccc(-n2nc3ccc(NC(=O)c4cccc(OCCC(C)C)c4)cc3n2)cc1,"inconclusive: 1.78 µM [inhibitor, full curve, poor fit]"
14,CC(=O)Nc1cccc(C(=O)OC(C(=O)c2ccc(C)cc2)c2ccccc2)c1 (stereo not drawn),active: 14.1 µM
15,O=C(CSc1ccc(Cl)cc1)Nc1cccc(-c2nnc(-c3ccco3)o2)c1,"inconclusive: 11.2 µM [inhibitor, partial curve, poor fit]"
16,Cc1nn(C)c2c1c(-c1ccccc1)cc(=O)n2Cc1ccc(F)cc1,inactive
17,Cc1ccc(-c2nc3c(c(=O)c4ccccc4n3C)c(=O)n2Cc2ccco2)cc1,"inconclusive: 22.4 µM [inhibitor, single point]"
18,Cn1cccc1/C=N/n1c(-c2ccc(Cl)cc2)n[nH]c1=S,inactive
19,COc1ccc(-c2n[nH]c(C)c2-c2cnn(-c3ccccc3)c2)c(O)c1C,"inconclusive: 28.2 µM [inhibitor, partial curve]"
20,COc1ccc(S(=O)(=O)Nc2cccc(-c3ccc(N4CCCCC4)nn3)c2)cc1F,"inconclusive: 39.8 µM [inhibitor, single point]"
21,COc1ccccc1N=Cc1nc(-c2ccccc2)oc1OC(C)=O,"inconclusive: 25.1 µM [inhibitor, single point]"
22,CC(C)(C)c1cc(Br)c(O)c(N=Nc2ccc(S(=O)(=O)N3CCOCC3)cc2)c1,"inconclusive: 0.112 µM [activator, full curve]"
